Laboratory results as given in PubChem BioAssay AID504832 (National Center for Advancing Translational Sciences (NCATS), 2011).
In all, about 310,000 compounds went through this assay and about 18,000 (5.8%) were called active. Inconclusive means that the source gave no clear call. Such entries were picked first, then a sample of the others. The call rests on the fitted dose curve; in most records, active means well fitted inhibition curve with a large enough effect; inconclusive means small, poorly fitted or top-dose-only effect, or another doubt; inactive means no such curve, though single readings can be large or run the other way. Potencies of inconclusive entries are left out as doubtful fits.

test: Primary qHTS for delayed death inhibitors of the malarial parasite plastid, 48 hour incubation; conditions: P. falciparum luciferase growth in erythrocytes; series mostly up to 28.7 µM
Outline: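 Erythrocytes infected with P. falciparum carrying an integrated firefly luciferase reporter (2% hematocrit, 0.1% parasitemia final) were exposed to compounds in RPMI 1640 with 0.5% Albumax at 37 C, 5% CO2. Growth inhibition was scored as reduced luminescence.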
Potency means the concentration at half of the fitted maximal effect; tags describe the fitted curve by direction and shape.

| Structure (SMILES) | Potency |
| --- | --- |
| Cc1ccc(CNC(=O)C2CCN(S(=O)(=O)c3ccc4c(c3)CC(C)N4C(=O)C3CCC3)CC2)o1 (stereo not given) | inconclusive [inhibitor, single point] |
| COc1cccc(NC(=O)NCCc2ccc(Cl)cc2)c1 | inconclusive [inhibitor, single point] |
| O=C1CN(C(=O)COc2ccc(Br)cc2)c2ccccc2N1 | inconclusive [inhibitor, partial curve, poor fit] |
| CCCN(CCC)c1nc2ccccc2nc1C(C#N)C(=O)OCCOC (stereo not given) | inconclusive [inhibitor, single point] |
| COc1ccc(S(=O)(=O)N2CCCC2C(=O)Nc2nnc(-c3cccnc3)s2)cc1 (stereo not given) | inconclusive [inhibitor, partial curve] |
| Cc1cnccc1CN(C)C(=O)CC1C(=O)NCCN1CC1CCCCC1 (stereo not given) | inconclusive [inhibitor, partial curve] |
| CCOc1ccc(NC(=O)NCc2cccnc2)cc1 | inactive |
| O=C1CC(N(CCc2ccccc2)C(=S)Nc2cc(Cl)ccc2Cl)C(=O)N1c1c(Cl)cccc1Cl (stereo not given) | inconclusive [inhibitor, partial curve] |
| CC1C(=O)N2CCCc3cc(S(=O)(=O)N4CCN(c5ccccc5F)CC4)cc1c32 (stereo not given) | active: 11.7 µM |
| CCc1sc(/C=C(/C#N)C(N)=S)cc1[N+](=O)[O-] | inactive |
| CC(C)OCCCNC(=O)C1CC(=O)N(CCc2ccccc2)C1 (stereo not given) | inactive |
| Cc1cccc(OCCN2C(=O)C(=O)c3cc(C)ccc32)c1 | inactive |
| COc1ccc(-c2cc(-c3ccc(Cl)cc3)c(C#N)c(SCC(=O)O)n2)cc1 | inactive |
| COc1ccc(CC(=O)N(Cc2ccccc2)c2ccc(C)cc2)cc1S(=O)(=O)N1CCOCC1 | inconclusive [inhibitor, partial curve] |
| COCCn1c(SCC(=O)NNC(=O)c2cc(Cl)ccc2OC)nnc1-c1ccncc1 | inconclusive [inhibitor, single point] |
| O=C(NCCc1ccncc1)Nc1ccc(Cl)c(Cl)c1 | inconclusive [inhibitor, partial curve, poor fit] |
| CCOc1ccc2oc(-c3ccccc3)c(C(=O)N(C)C)c2c1 | inactive |
| CCN(CC)S(=O)(=O)c1ccc2c(c1)N(CC(=O)N(CCc1ccncc1)C(C)C)C(=O)CO2 | inconclusive [inhibitor, single point] |
| CCCCCCNC(=O)n1cc(F)c(=O)[nH]c1=O | active: 4.26 µM |
| CC1CN(S(=O)(=O)c2cccc(C(=O)NCC3COc4ccccc4O3)c2)CC(C)O1 (stereo not given) | inconclusive [inhibitor, partial curve] |
| O=C(NC12CC3CC(CC(C3)C1)C2)N1CCN(c2nc(-c3ccccc3)cs2)CC1 | inconclusive [inhibitor, single point] |
| CCN(CC)C(=O)Cn1cc(S(=O)(=O)CC(=O)Nc2cc(OC)ccc2OC)c2ccccc21 | inconclusive [inhibitor, partial curve, poor fit] |
| COc1ccccc1/C=C\C(=O)NCC(=O)N/N=C/c1ccc(O)cc1O | inconclusive [inhibitor, partial curve] |
| CC1(C)NC(=O)N(CC(=O)Nc2nc(-c3ccc(F)cc3)cs2)C1=O | inactive |

| Structure (SMILES) | Potency |
| --- | --- |
| Cc1ccc(NC(=S)N/N=C2\CCCCC2C)cc1 (stereo not given) | inactive |
| COc1ccc(CCC(=O)N2CCCC(Nc3ccccc3)C2)cc1OC (stereo not given) | inconclusive [inhibitor, partial curve, poor fit] |
| CCN(CC)C(=O)COc1c(-c2ccco2)oc2ccccc2c1=O | inconclusive [inhibitor, partial curve, poor fit] |
| CC(=O)c1cc(F)c(N2CCN(C(=O)Cc3ccccc3)CC2)cc1C | inconclusive [inhibitor, single point] |
| COc1ccc(/C=C/C2=CC(C)(C)NC(=S)N2)cc1 | inconclusive [inhibitor, single point] |
| Cc1[nH]c2ccccc2c1C(=O)C(=O)N1CCN(c2ccccc2)CC1 | inactive |
| CCc1cccc2c(C#N)cn(CC(=O)N3CCOCC3)c12 | inconclusive [inhibitor, single point] |
| COCCn1c(=N)c(C(=O)NCc2ccco2)cc2c(=O)n3cc(C)ccc3nc21 | inconclusive [inhibitor, single point] |
| COc1ccc(CNC(=O)c2ccc3ccccc3n2)cc1 | inconclusive [inhibitor, single point] |
| Cc1cc(Cl)ccc1C1=CC(=O)C[C@H](c2ccc(F)cc2)C1 | inconclusive [inhibitor, single point] |
| CCCC(C(=O)NC1CCCC1)N(CC1CCCO1)C(=O)CNS(=O)(=O)c1ccc(F)cc1 (stereo not given) | inactive |
| COC(=O)c1ccc(-n2c(C)cc(C(=O)CCl)c2C)cc1 | inconclusive [inhibitor, single point] |
| COC1(OC)N=C(NC(=O)Nc2ccccc2)C2(C#N)C(c3ccccc3)C12C#N (stereo not given) | inconclusive [inhibitor, full curve, poor fit] |
| COC(=O)/C(=N/Nc1ccccc1OC)N1CCCc2ccccc21 | inconclusive [inhibitor, partial curve, poor fit] |
| N=c1c2c3c(sc2ncn1Cc1ccccc1)CCCC3 | inconclusive [inhibitor, single point] |
| C/C(=N\N=C1\NC(=O)C(CC(=O)Nc2ccc(C)c(Cl)c2)S1)C(C)C (stereo not given) | inconclusive [inhibitor, single point] |
| O=C(O)c1ccccc1-c1noc(-c2ccccc2F)n1 | inconclusive [activator, partial curve] |
| Cn1c2ccccc2c(=O)c2c(=O)n(C3CCCCC3)c(-c3cccs3)nc21 | active: 6.57 µM |
| O=C1NC(=O)/C(=C\c2ccc(N3CCOCC3)o2)N1 | active: 7.38 µM |
| O=C(CC1C=Cc2ccccc2N1C(=O)c1ccccc1)c1ccccc1 (stereo not given) | inconclusive [inhibitor, single point] |
| Cc1ccc(NC(=O)c2ccc(S(=O)(=O)N3CCCCC3)cc2)nc1 | inconclusive [inhibitor, single point] |
| O=C(NCCCN1CCOCC1)c1cc(-c2cccc(Br)c2)nc2ccccc12 | inconclusive [inhibitor, partial curve, poor fit] |
| Cc1nn(C)c(C)c1S(=O)(=O)N1CCC(C(=O)NC2CCCCCC2)CC1 | inactive |
| O=C(Nc1ccc(Cl)c(Cl)c1)Nn1cnnc1 | inactive |

| Structure (SMILES) | Potency |
| --- | --- |
| Nc1cc(-c2ccc(Br)cc2)nn1S(=O)(=O)c1ccccc1 | inconclusive [inhibitor, partial curve, poor fit] |
| CC1CN(C(=O)c2cccs2)CCN1C(=O)c1cccs1 (stereo not given) | inactive |
| CC(C)N(CCNC(=O)c1oc(=O)c2ccccc2c1-c1ccccc1)Cc1ccco1 | inactive |
| CCN(CC)C(=O)c1cccc(NC(=O)c2cc(-c3ccccn3)nc3ccccc23)c1 | inactive |
| CCOC(=O)c1ccc(NS(=O)(=O)c2cc3c4c(c2)CCN4C(=O)CC3)cc1 | inconclusive [inhibitor, single point] |
| O=C(COc1ccc(-n2ccnc2)cc1)Nc1cccc(Cl)c1 | inactive |
| COc1cccc(C2=CC(c3ccc(OC)c(OC)c3)NC(=S)N2)c1 (stereo not given) | active: 10.4 µM |
| O=C(CNC(=O)c1ccc(Br)o1)NCC1CCCCC1 | inactive |
| CC(C)CN(CC(C)C)S(=O)(=O)N1CCC(C(=O)NC2CCCCCCC2)CC1 | inconclusive [inhibitor, partial curve, poor fit] |
| COc1ccc(CN2C(=O)C(CC(C)C)Nc3ncnc(N4CCN(c5ccccn5)CC4)c32)cc1 (stereo not given) | inconclusive [inhibitor, single point] |
| CCCc1cc(=O)oc2cc(C)cc(OCC(=O)NCCCn3ccnc3)c12 | inconclusive [inhibitor, single point] |
| Cc1ccc(NC(=O)COC(=O)C2(c3ccc(Cl)cc3)CCCC2)cc1 | inconclusive [inhibitor, partial curve, poor fit] |
| O=C(NNC(=S)Nc1ccccc1C(F)(F)F)c1ccc(Br)o1 | inactive |
| Cc1ccccc1N(CC(=O)NCCSC1CCCCC1)S(=O)(=O)c1ccccc1 | inconclusive [inhibitor, partial curve] |
| CCCCCOC(=O)C1[C@H]2C(=O)N(CCCOC)C[C@]23C=C[C@H]1O3 (stereo not given in full) | inconclusive [inhibitor, single point] |
| O=C(CSc1ccc2nnc(CCNS(=O)(=O)c3ccccc3)n2n1)Nc1nc2ccccc2s1 | inactive |
| O=C(CC(=O)c1ccccc1)Nc1ccccc1C(F)(F)F | inactive |
| CC(NC(=O)C1CCN(S(=O)(=O)c2ccc3nc4c(c(C(=O)O)c3c2)CCCC4)CC1)c1ccccc1 (stereo not given) | inactive |
| CCOc1ccc(CCNC(=O)c2cc(S(=O)(=O)N3CCOCC3)ccc2C)cc1OCC | inconclusive [inhibitor, single point] |
| CCn1c(C)c(C(=O)O)c2cc(OC)ccc21 | inactive |
| CN(CCO)S(=O)(=O)c1ccc2c(c1)C(=NO)c1cc(S(=O)(=O)N(C)CCO)ccc1-2 | inconclusive [inhibitor, partial curve] |
| CC(=O)Nc1sc(NC(=O)c2ccc([N+](=O)[O-])cc2)nc1-c1cccs1 | inconclusive [inhibitor, single point] |
